Test results taken from the RNAGym collection of RNA variant scans (doi:10.7554/elife.90254).
The source gives no read counts; variants with many changes may rest on few reads.

B1: LINE1-mini (parent)
chain: GGCAGAGCUCAACACAGCGUGGCAAAGUGGCUGUGGCUAGACUGCC

Variants of: B1
Assay: self-cleavage, relative activity (ratio to wild type); higher = more cleavage; in vitro, sequencing; the parent is a self-cleaving ribozyme

**Q.** For GGCAGAGCUCAAUACAGCGUGGCAAAGUGGCUGUGGUUACACUGCC [C13U C37U G40C], which self-cleavage is on record?
**A.** 0.05

**Q.** For GGCAGAGCUCAAGACAGCGUGGCAAAGUGACUUUGGCUAGACUGUC [C13G G30A G33U C45U], which self-cleavage is on record?
**A.** 0.08

**Q.** With GGCAGAGCUCAAUACAGCGUGGCAGAGUUGCGGUGGCUAGACUGCC [C13U A25G G29U U32G] as the variant, how does the self-cleavage read?
**A.** 0.06

**Q.** Which self-cleavage does the source give for GGCAGAGCUCAAUACAGAGUGGCAAAGUGGCUGUGGCUAGACUGAC [C13U C18A C45A] here?
**A.** 0.02

**Q.** With GGCAGAGCUCAAUAUAGCGUGGCCAAGUGGCUGUGGGUAGACUACC [C13U C15U A24C C37G G44A] as the variant, how does the self-cleavage read?
**A.** 0.05

**Q.** With GGCAGAGCUCAAUACACCGUGGCAAAGUGGCUGUGGCGAGACUGCC [C13U G17C U38G] as the variant, how does the self-cleavage read?
**A.** 0.04

**Q.** With GGCAGAGCUCAAGACAGCGAGGCAAAGUGGAUGUGGCAAGACUGCC [C13G U20A C31A U38A] as the variant, how does the self-cleavage read?
**A.** 0.02

**Q.** For GGCAGAGCUCAAUACAGCGUGGCAAAGUGGCUGUGGCUCGACCGCC [C13U A39C U43C], which self-cleavage is on record?
**A.** 0

**Q.** For GGCAGAGCUCAAGACAGCGUGGCAAAGUGGCUCUGACUAGACUGCA [C13G G33C G36A C46A], which self-cleavage is on record?
**A.** 0.02

**Q.** With GGCAGAGCUCAAGACAGCGUGCCAAAGUGGCUGUGUCUACACUGCC [C13G G22C G36U G40C] as the variant, how does the self-cleavage read?
**A.** 0.05

**Q.** With GGCAGAGCUCAAUACAGCGUGGCAAAGUGGUUGGGGCUAGACUGCC [C13U C31U U34G] as the variant, how does the self-cleavage read?
**A.** 0.07

**Q.** For GGCAGAGCUCAAGACAGCGUGGCAAAGAGGCUGUGACUAGACUGCC [C13G U28A G36A], which self-cleavage is on record?
**A.** 0.11

**Q.** With GGCAGAGCUCAAGACAGCGUGACAAAGGGGCUGUGGCUAGACUGCC [C13G G22A U28G] as the variant, how does the self-cleavage read?
**A.** 0.04

**Q.** With GGCAGAGCUCAAUACCGGGUUGCAAAGUUGCUGUGUCUAGACUGUC [C13U A16C C18G G21U G29U G36U C45U] as the variant, how does the self-cleavage read?
**A.** 0.1

**Q.** For GGCAGAGCUCAAUUCAGCGUGGCAAAGUGGCCGUGGCUAGACUGCC [C13U A14U U32C], which self-cleavage is on record?
**A.** 0.04

**Q.** With GGCAGAGCUCAAGACAGCGUGGCAAAUUGGCUGUGGCUAGACUGCA [C13G G27U C46A] as the variant, how does the self-cleavage read?
**A.** 0.05

**Q.** With GGCAGAGCUCAAUACGGCGUGGAAAAGUGGCUGUGGCUUGACUGCC [C13U A16G C23A A39U] as the variant, how does the self-cleavage read?
**A.** 0.04

**Q.** With GGCAGAGCUCAAUACAGUGUGGCAAAGGGGGUGUGGGUAGACUGCC [C13U C18U U28G C31G C37G] as the variant, how does the self-cleavage read?
**A.** 0.01

**Q.** With GGCAGAGCUCAAUAUAGCGUCGCAAACUGCCUGUGGCUAGACUGCC [C13U C15U G21C G27C G30C] as the variant, how does the self-cleavage read?
**A.** 0.11

**Q.** For GGCAGAGCUCAAGACAGCGUGGCAAAGUGGCAGUGGCUAGCCUGCC [C13G U32A A41C], which self-cleavage is on record?
**A.** 0.03

**Q.** For GGCAGAGCUCAAUACAGCGUGGCAUAGUGGCAGUGGCUAGACUGCC [C13U A25U U32A], which self-cleavage is on record?
**A.** 0.18

**Q.** Which self-cleavage does the source give for GGCAGAGCUCAAGACAGCGUGGCAAAGUGGCUGUGCCUAGCCUGCC [C13G G36C A41C] here?
**A.** 0.1

**Q.** For GGCAGAGCUCAAGACAGCGUGGCAAAGUGGCUGAGCCUAGACUGCC [C13G U34A G36C], which self-cleavage is on record?
**A.** 0.05

**Q.** With GGCAGAGCUCAAGACAGCGUGGCAAACUGGAUGUGGCUAGGCUUCC [C13G G27C C31A A41G G44U] as the variant, how does the self-cleavage read?
**A.** 0

**Q.** Which self-cleavage does the source give for GGCAGAGCUCAAUCCAGCGUGGCCAAGUGGCUGUGGCUAGACUGCC [C13U A14C A24C] here?
**A.** 0.09

**Q.** For GGCAGAGCUCAAGACAGCGUGGCAAAGUGGCUGUCACUAGACUGCC [C13G G35C G36A], which self-cleavage is on record?
**A.** 0.03

**Q.** For GGCAGAGCUCAAUACAUCGGGGCAAAGUGGCUGUGGCUAGACUGCC [C13U G17U U20G], which self-cleavage is on record?
**A.** 0.44

**Q.** Which self-cleavage does the source give for GGCAGAGCUCAAUACCGCGUGGCUAAGUGGCUGUGGCUAGACUGCC [C13U A16C A24U] here?
**A.** 0.07

**Q.** For GGCAGAGCUCAAUCCAGCGUGGCAAAGUGGCUGUGGCUAUACUGCC [C13U A14C G40U], which self-cleavage is on record?
**A.** 0

**Q.** For GGCAGAGCUCAAUAUAGCGUAUCAAAGUGGCUGUGGCUACACUGCC [C13U C15U G21A G22U G40C], which self-cleavage is on record?
**A.** 0.14

**Q.** With GGCAGAGCUCAAUACAGAGUGACAAAGUGGCUGUGGCUAGACUGCC [C13U C18A G22A] as the variant, how does the self-cleavage read?
**A.** 0.03

**Q.** With GGCAGAGCUCAAUACAGCGUGGCAAAGUGGCUGUGGCUUUACUGCC [C13U A39U G40U] as the variant, how does the self-cleavage read?
**A.** 0.04

**Q.** For GGCAGAGCUCAAUACAGCGUGGAAACGUGGAUGUGGCUAGACUGCC [C13U C23A A26C C31A], which self-cleavage is on record?
**A.** 0.13

**Q.** With GGCAGAGCUCAAUACAGCGUGGCAAAGUGGAUGUCGCUAGACUGCC [C13U C31A G35C] as the variant, how does the self-cleavage read?
**A.** 0.03

**Q.** With GGCAGAGCUCAAUACUGCGUGGCAAAGAGGCUGUGGCUUGACUGCC [C13U A16U U28A A39U] as the variant, how does the self-cleavage read?
**A.** 0.09

**Q.** For GGCAGAGCUCAAUACAGCGUGGCAAAGUGGCUGUGGGUAGAUUGCC [C13U C37G C42U], which self-cleavage is on record?
**A.** 0.02

**Q.** With GGCAGAGCUCAAUACAGCGUAGCAAAGUGGAUGUGGCUAGACGGGC [C13U G21A C31A U43G C45G] as the variant, how does the self-cleavage read?
**A.** 0.15

**Q.** Which self-cleavage does the source give for GGCAGAGCUCAAUACGGCGUGACAAAGUGGCUGUGGCUAGACUGCA [C13U A16G G22A C46A] here?
**A.** 0

**Q.** Which self-cleavage does the source give for GGCAGAGCUCAAUGAAGCGUGGCAAAGUGGCUGGGGCUAGACUGCC [C13U A14G C15A U34G] here?
**A.** 0.03

**Q.** For GGCAGAGCUCAAUACAGCGUGGCAAAGUGGGUGUGGGUAGACUGCC [C13U C31G C37G], which self-cleavage is on record?
**A.** 0.01

**Q.** With GGCAGAGCUCAAUGCAGCGUGACAAAGUGGCUGUGGCUACACUACC [C13U A14G G22A G40C G44A] as the variant, how does the self-cleavage read?
**A.** 0.03

**Q.** Which self-cleavage does the source give for GGCAGAGCUCAAGACAGCGUUGCAAAGUGGCUGUGGCUGGACUGCC [C13G G21U A39G] here?
**A.** 0.04

**Q.** For GGCAGAGCUCAAGACAGCGUGCCCAAGUGGCAGAGCCUAGACUACC [C13G G22C A24C U32A U34A G36C G44A], which self-cleavage is on record?
**A.** 0.01

**Q.** For GGCAGAGCUCAAUACAGUGUGGCAAAGUGUCUGUGUCUAGACUCCC [C13U C18U G30U G36U G44C], which self-cleavage is on record?
**A.** 0.12

**Q.** For GGCAGAGCUCAAGACAGCGUGGCAAAGUCGCUGUGGCUAUACUGCC [C13G G29C G40U], which self-cleavage is on record?
**A.** 0.16

**Q.** With GGCAGAGCUCAAUACAUUGUGGCAGAGCGGUUGUGGCUAGACUGCC [C13U G17U C18U A25G U28C C31U] as the variant, how does the self-cleavage read?
**A.** 0.07

**Q.** Which self-cleavage does the source give for GGCAGAGCUCAAGACAGCGUGUCAAAGUGGCUGUGGCUCGACUGCC [C13G G22U A39C] here?
**A.** 0.03

**Q.** For GGCAGAGCUCAAUACAGCGUGGUCAAGUGGCUGUGGUUAGACUGCC [C13U C23U A24C C37U], which self-cleavage is on record?
**A.** 0.05

**Q.** With GGCAGAGCUCAAUACAGUGUGGCAAAGUGGCUGUGGAUAGACUGCC [C13U C18U C37A] as the variant, how does the self-cleavage read?
**A.** 0.02

**Q.** For GGCAGAGCUCAAUAAAGCUUGGCUAAGUGGCUGUGGCUAGGCUGCC [C13U C15A G19U A24U A41G], which self-cleavage is on record?
**A.** 0.05

**Q.** Which self-cleavage does the source give for GGCAGAGCUCAAUACAGCGUGGCACAGCGGCUGUGGCUAGACUGCC [C13U A25C U28C] here?
**A.** 0.04

**Q.** For GGCAGAGCUCAAUACAGCGUGGCAAGGUGGCUGUGGCAAGACUGCC [C13U A26G U38A], which self-cleavage is on record?
**A.** 0

**Q.** For GGCAGAGCUCAAUACAGGGUGGCAAGGUGGCUGUGGUUAGACUGCC [C13U C18G A26G C37U], which self-cleavage is on record?
**A.** 0.04

**Q.** For GGCAGAGCUCAAUACAGCUUGGCAAAGUGGCUGUGGCUACACUGCC [C13U G19U G40C], which self-cleavage is on record?
**A.** 0.03

**Q.** For GGCAGAGCUCAAUACAACGUGGCAGAGUGGCUGUGGCUAGACUGCA [C13U G17A A25G C46A], which self-cleavage is on record?
**A.** 0.11

**Q.** With GGCAGAGCUCAAUAUAGCGUGGCAAAGUGGCUGUGGCUACACUGCC [C13U C15U G40C] as the variant, how does the self-cleavage read?
**A.** 0.02
